Data on 22 molecules can be found in paper PMC12136788.

This is one part of the list.

B1: chr1:25360731:25360844:+|3pUTR|ENSG00000183726|unk|total|mutant (ssRNA)
RNA: GGGAGUUCUACAGUCCGACGAUCUUUUUUACUGCUCACUCCCAACCUUUUGUAAUGCCAUUUUCUAAACUUAUUUCUGAGUGCCGUCUCAGCUUAAAGUUGUGUAAUACUAAAAUCACGAGAACACCUAAACAACAACCAAAACAACAGAGGAUUGAGCAUCA
B2: chr11:130144177:130144243:+|3pUTR|ENSG00000084234|msi1_unk|FALSE|overlapping (ssRNA)
RNA: GGGAGUUCUACAGUCCGACGAUCAUGAGGGUGUCCGCUGCUGCUUUCCUUCGGAAUCCAGUGCUUCCACAGAGAUUAGCCUGUAGCUUAUAUUUGACAUUCUUCACUGUCUGUUGUUUACCUACCGUAGCUUUUUACCGUUCACAACAGAGGAUUGAGCAUCA
B3: chr16:22286016:22286117:+|3pUTR|ENSG00000103319|msi1|total|mutant (ssRNA)
RNA: GGGAGUUCUACAGUCCGACGAUCCUGAGCCCAGCCAAGACUUCAGUGUUGACUGCUUUGGAGGCACAAACCCAUGCAAGCGUCCGUUCCAAAGUUCAGUGUGUACCCUUAAAUGAACAAUGAAGCAGGUAAAAUUACCCUUGACAACAGAGGAUUGAGCAUCA
B4: chr19:6534681:6534787:+|CDS|ENSG00000125657|unk|total|mutant (ssRNA)
RNA: GGGAGUUCUACAGUCCGACGAUCAGAGGACACGAAGGAGCUGGUGGUGGCCAAGGCUGGAGUCUACUAUGUCUUCUUUCAACCCGAGCUGCGGCGCGUGGUGGCCGGCGAGGGCUCAGGCUCCGUUUCACUUGCGCUGCACCUCAACAGAGGAUUGAGCAUCA
B5: chr1:110947961:110948399:-|CDS|ENSG00000121931|control|control|control (ssRNA)
RNA: GGGAGUUCUACAGUCCGACGAUCAAGUCAUUUCUUCAAUAAAAAUUAUACCGAAGAUAUUUUCCCAGUGACACCACCGGAGUUAGAAGAAACCAUUCGAGAUGAAAAAAUAAGAAGACUUAAGCAGGUGCUGAGAGAGAAAGACAACAGAGGAUUGAGCAUCA
B6: chr4:76160418:76160736:-|3pUTR|ENSG00000138760|msi1|total|mutant (ssRNA)
RNA: GGGAGUUCUACAGUCCGACGAUCAGUUCCUUCCUCAGUUUCAGUUCUUUCCAGUGUUUUGCCGCUCACUGUCACUCACUGAACCGAGAAACGUGUGCCCUAUACUUCCUGUGACAAUCAUUUUGCUGACAGAAUGAUGGAUGUCAACAGAGGAUUGAGCAUCA
B7: chr14:22920524:22921056:-|three_prime_utr|ENSG00000100462|control|control|control (ssRNA)
RNA: GGGAGUUCUACAGUCCGACGAUCCAGCACCAGUCUGUUCUGCUAUUCAUAACCCCACAGGCCGCUCAUAUACCAUUGGCCUCUAGCCCUGCGUGCCAAGUGUCCAGAGCCUUGGAAGCAGCUUCAGGUUCUGCUCCUGUAGUACAACAGAGGAUUGAGCAUCA
B8: chr9:35750248:35750349:+|CDS|ENSG00000107185|msi1|total|mutant (ssRNA)
RNA: GGGAGUUCUACAGUCCGACGAUCGGCCCUGGCCUGGGCCAGUGCCCAAAUCCACUGCCAGUUCCAUGCCAGUGAGAGUCGAGCCGCACUGCCUCCUCCUGACUCCCGUCAGCCAGAUGUCCAGCCCGACAGCCAGACUGUCUUCAACAGAGGAUUGAGCAUCA
B9: chr14:100883672:100883793:-|CDS|ENSG00000254656|unk|total|mutant (ssRNA)
RNA: GGGAGUUCUACAGUCCGACGAUCUCUAUUCCGGGUCCCUCAGCCGGAUUCCCCCGACAGUCUGAUUGUGCUCAUCCUGCAAACCGAAGAGAAGCUGGCAGAGAGAAGAGCUAUGCUCAGGCUGCCCCCCGAGGCCCGCCCCCGCAACAGAGGAUUGAGCAUCA
B10: chr2:9584341:9584442:-|3pUTR|ENSG00000134308|msi1_unk|total|mutant (ssRNA)
RNA: GGGAGUUCUACAGUCCGACGAUCUUUCCAUGCAGAUUUGUGCACAUGUGAGAGGGUGUCCAGUUUGUCCCGUGAUUGUUAUUCCGAGAGUUGGACCACUAUUGUGUGUUGCUAAUCAUUGACUGCCGUCCCAAAAAAGCCUUGCAACAGAGGAUUGAGCAUCA
B11: chr11:78173774:78174554:-|CDS|ENSG00000188997|control|control|control (ssRNA)
RNA: GGGAGUUCUACAGUCCGACGAUCCGGGGGGAAGCUCUAUACAACCUCACUGGCGACCCUGACCAGCUUCCCUGACUCCAUGCUAGGCGCCAUGUUCAGCGGGAAGAUGCCCACCAAGAGGGACAGCCAGGGCAACUGCUUCAUCAACAGAGGAUUGAGCAUCA
B12: chr10:33178043:33178144:-|3pUTR|ENSG00000099250|msi1|total|mutant (ssRNA)
RNA: GGGAGUUCUACAGUCCGACGAUCAAAUUGGAUUGAGAAUGCCUUUUGUUUCCAGGAAAAUAUUGAUCACCAUGAAAGAAGAACCGUUUUUUGUCCCCAGAGACAUUCAUUCCGUUGAUAUAAUCCUACCAGAAGGAAAGCACUCAACAGAGGAUUGAGCAUCA
B13: ENSG00000070961:be:win_4101|3pUTR|ENSG00000070961|bound_else_gene|NA|bound_elsewhere_windowed (ssRNA)
RNA: GGGAGUUCUACAGUCCGACGAUCUACAGAUCUGUUUACAAGGUUUGUAGAUACUUUUUUUGUUCCUGUUCAUAGAUGGGAAGCUUCCUUAUAACUGAUGCAGAGAAAAAUUAGUCCUUCAAAUACUGCUGUAUUUUCAGGAAACAACAGAGGAUUGAGCAUCA
B14: ENSG00000198589:be:win_6101|CDS|ENSG00000198589|bound_else_gene|NA|bound_elsewhere_windowed (ssRNA)
RNA: GGGAGUUCUACAGUCCGACGAUCUAGGAAAUCAGAACUCAGAAAACGAGAUCCUCCUGGAAGGCGAUGAUGAUACUCUGUCAUCCGUGGAUGAGAAAGAUUUAGAGAAUCUUGCCGGUCCUGUUAGCCUGAGCACACCAGCUCCAACAGAGGAUUGAGCAUCA
B15: chr2:210678210:210678332:+|3pUTR|ENSG00000021826|unk|total|mutant (ssRNA)
RNA: GGGAGUUCUACAGUCCGACGAUCUUCAUCCAUUUACUAAUACUGUAUUUUUGGUGGACCCGGCUUGCCUAUGUGCUUAUGUGCCGCUUUUUACUUUUUAUGGUGCUGAUUAAUGGUGAUCAAGGCCGGAAAAGUUGCUGUUCUCAACAGAGGAUUGAGCAUCA
B16: chr9:116187394:116187495:+|CDS|ENSG00000182752|msi1|total|mutant (ssRNA)
RNA: GGGAGUUCUACAGUCCGACGAUCUGGGGAACAAGUGGGUGGCAUAUUCAGCCCACUGACCCAGAAGUGCAAAGUGCUCAUGUCCGGGGGCAGUGCCCUGAAUCACAACUACCGGGGCUACAUCGAGCACUUCAGUCUGUGGAACAACAGAGGAUUGAGCAUCA
B17: chr6:4943581:4943691:+|CDS|ENSG00000153046|unk|FALSE|bound_elsewhere (ssRNA)
RNA: GGGAGUUCUACAGUCCGACGAUCUACUUUCAUUCAAUUUAAGAAGCCCAUUAUUGUAGCAGUCAAUGGCCCAGCCAUUGGUCUAGGAGCAUCUAUAUUGCCUCUUUGCGAUGUGGUUUGGGCUAAUGAAAAGGCUUGGUUUCACAACAGAGGAUUGAGCAUCA
B18: ENSG00000070961:be:win_2401|CDS|ENSG00000070961|bound_else_gene|NA|bound_elsewhere_windowed (ssRNA)
RNA: GGGAGUUCUACAGUCCGACGAUCGAUGGCCCAGCACUAAAGAAAGCAGAUGUUGGAUUUGCAAUGGGUAUUGCUGGAACUGAUGUAGCUAAAGAAGCAUCCGAUAUUAUUCUCACAGAUGACAACUUUACAAGCAUUGUUAAACAACAGAGGAUUGAGCAUCA
B19: chr10:87753454:87753555:-|3pUTR|ENSG00000138138|msi1|total|mutant (ssRNA)
RNA: GGGAGUUCUACAGUCCGACGAUCCGUUUAAUGUGAAUUAUAUGUGAAUUUUUUUCAAAAUUUUACUAACCAGAAUUCUGUUACCGGCACCUAACCACGCAGCAUGAGGAAAACGGCACAACACAAUCUUGAGGUGCCUUCUGACAACAGAGGAUUGAGCAUCA
B20: chr1:169124931:169125019:+|5pUTR_CDS|ENSG00000143153|msi1_unk|FALSE|overlapping (ssRNA)
RNA: GGGAGUUCUACAGUCCGACGAUCGAAAUUUCCUUUCGUCCUAAUGAUCCCAAGAGCUAUGAGGCAUAUGUACUGAACAUAGUUAGGUUCCUGGAAAAGUACAAAGAUUCAGCCCAGAGGGAUGACAUGAUUUUUGAAGAUUGUCAACAGAGGAUUGAGCAUCA
B21: ENSG00000198589:be:win_1751|CDS|ENSG00000198589|bound_else_gene|NA|bound_elsewhere_windowed (ssRNA)
RNA: GGGAGUUCUACAGUCCGACGAUCCCAAGGUUCAACUGAUGCUCUAUACUUAUCUGUCCACGGAAUUCAUUGGUACAGUCAACAUAUAUAACACCAUUCGGAGAGUUGGAACAGUGCUUCUCAUCAUGCACACGCUGAAGUACUCAACAGAGGAUUGAGCAUCA
B22: chr20:56370492:56370607:-|CDS|ENSG00000087586|unk|total|mutant (ssRNA)
RNA: GGGAGUUCUACAGUCCGACGAUCUCGGAUGCAUGAUGAGAAGGUGGAUCUCUGGAGCCUUGGAGUUCUUUGCUAUGAAUUUUCCGUUGGGAAGCCUCCUUUUGAGGCAAACACAUACCAAGAGACCUACAAAAGAAUAUCACGCAACAGAGGAUUGAGCAUCA

This assay addresses MSI1 full-length (mouse, UniProt Q61474 1-362). Briefly: nsRBNS (natural sequence RNA bind-n-seq); RBNS binding buffer (assumed for nsRBNS): 25 mM Tris pH 7.5, 150 mM KCl, 3 mM MgCl2, 0.01% Triton X-100, 500 ug/ml BSA, 20 U/ml SUPERase-In, 4 C; UNK is unkempt and MSI1 is Musashi-1; names of the RNAs are library labels; protein concentration not given here; high values mean tight binding.
Chain of UniProt Q61474 (Q61474 whole entry): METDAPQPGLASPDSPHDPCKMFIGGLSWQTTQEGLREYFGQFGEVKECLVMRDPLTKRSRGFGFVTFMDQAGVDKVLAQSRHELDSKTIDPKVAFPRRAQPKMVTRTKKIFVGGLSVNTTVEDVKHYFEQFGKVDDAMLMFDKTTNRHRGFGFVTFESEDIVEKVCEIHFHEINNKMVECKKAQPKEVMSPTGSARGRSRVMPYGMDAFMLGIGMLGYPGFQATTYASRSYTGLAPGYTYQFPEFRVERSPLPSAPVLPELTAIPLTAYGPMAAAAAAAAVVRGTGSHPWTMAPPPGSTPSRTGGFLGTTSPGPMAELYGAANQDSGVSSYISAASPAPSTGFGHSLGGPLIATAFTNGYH
B1 came in with a binding signal of 0.673 enrichment R.

The molecule B2 returned a binding signal of 1.41 enrichment R. Next, B3: 0.375 enrichment R; B4: 0.742 enrichment R; B5: 0.75 enrichment R. Next, B6: 0.317 enrichment R; B7: 0.537 enrichment R. Next, B8: 0.443 enrichment R; B9: 0.436 enrichment R. B10 registered a binding signal of 0.322 enrichment R.

B11 yielded a binding signal of 0.459 enrichment R. Under B12 stands 0.284 enrichment R. Turning to B13, the binding signal worked out at 0.545 enrichment R. Next, B14: 0.402 enrichment R; B15: 0.246 enrichment R; B16: 0.369 enrichment R.

Molecule B17 returned a binding signal of 0.445 enrichment R. Next, B18: 0.431 enrichment R; B19: 0.455 enrichment R.

For the molecule B20, the binding signal was 2.6 enrichment R. Next, B21: 0.28 enrichment R; B22: 0.324 enrichment R.
